Laboratory results published in the supplement of paper PMC4967469.
Lines with a small IC50 respond at low doses; a limit (>, <) means that the fit lies beyond the doses tested. For AUC the same curve is integrated over the 256-fold range of doses and scaled to a fraction; the more sensitive the line, the further below 1. For some of these results: Where the top dose is marked as inferred, it was derived from the fitted curves, not read from the paper. For some of these results: An entry number marks a drug with two screens in the source, which often give different values.

Legend:
Assay in all cases: Viability of human cancer cell lines after 72 h of drug (GDSC screen)
[1] = compound: Oc1cccc(-c2nc(N3CCOCC3)c3oc4ncccc4c3n2)c1 [PI-103]; conditions: top dose 10.24 µM
Description: (§1)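 Human cancer cell lines in 384-well plates, medium with 10% serum, drug for 72 h over a 256-fold dose range (nine 2-fold or five 4-fold steps up to the top dose). Adherent lines were fixed and stained with the nucleic acid dye Syto60, suspension lines read with resazurin; signal relative to control wells, capped at 0 and 100%. One two-parameter sigmoid per drug and line, fitted in a mixed model over all curves with the slope shared within a line.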

[2] = compound: CCn1c(-c2nonc2N)nc2c(C#CC(C)(C)O)ncc(OC[C@H]3CCCNC3)c21 [GSK690693]; conditions: top dose 10.24 µM; top dose inferred
Description: as §1

[3] = compound: Cc1cccc(-c2[nH]c(C(C)(C)C)nc2-c2ccc3c(c2)OCO3)n1 [SB-505124]; conditions: top dose 10 µM; top dose inferred
Description: as §1

[4] = compound: COc1cc2c(NC3CCN(C(C)C)CC3)nc(C3CCCCC3)nc2cc1OCCCN1CCCC1 [UNC0638]
Description: as §1

[5] = compound: CC1=C(/C=C/C(C)=C/C=C/C(C)=C/C(=O)O)C(C)(C)CCC1 [Tretinoin]; conditions: top dose 10 µM; top dose inferred
Description: as §1

[6] = compound: O=C(NCCCNc1nc(Nc2cccc(NC(=O)N3CCCC3)c2)ncc1I)c1cccs1 [BX-795]; conditions: top dose 5 µM; top dose inferred
Description: as §1

[7] = top dose 20 µM, screen: GDSC drug entry 1236, top dose inferred
[8] = top dose 40 µM, screen: GDSC drug entry 245

| Cell Line | AUC [1] | IC50 [1] [µM] | AUC [2] | IC50 [2] [µM] | AUC [3] | IC50 [3] [µM] | AUC [4, 7] | IC50 [4, 7] [µM] | AUC [4, 8] | IC50 [4, 8] [µM] | AUC [5] | IC50 [5] [µM] | AUC [6] | IC50 [6] [µM] |
| --- | --- | --- | --- | --- | --- | --- | --- | --- | --- | --- | --- | --- | --- | --- |
| CAL-51 (breast, adherent) | 0.849 | 6.16 | 0.949 | > 10.2 | 0.947 | > 10 | 0.99 | > 20 | 0.985 | > 40 | 0.944 | > 10 | 0.736 | 1.32 |
| CAL-62 (thyroid, adherent) | 0.659 | 1.72 | 0.987 | > 10.2 | 0.981 | > 10 | 0.892 | > 20 | 0.97 | > 40 | 0.95 | > 10 | 0.828 | 2.89 |
| CAL-72 (osteosarcoma, adherent) | 0.984 | > 10.2 | 0.981 | > 10.2 | 0.957 | > 10 | 0.831 | 15.9 | 0.984 | > 40 | 0.904 | > 10 | 0.858 | > 5 |
| CAL-78 (chondrosarcoma, adherent) | 0.984 | > 10.2 | 0.986 | > 10.2 | 0.98 | > 10 | 0.799 | 11.3 | 0.856 | 39.8 | 0.986 | > 10 | 0.851 | 4.74 |
| CAL-85-1 (breast, adherent) | 0.556 | 0.947 | 0.895 | > 10.2 | 0.979 | > 10 | 0.979 | > 20 | 0.828 | 34.7 | 0.961 | > 10 | 0.866 | > 5 |
| CAL-120 (breast, adherent) | 0.45 | 0.45 | 0.96 | > 10.2 | 0.973 | > 10 | 0.965 | > 20 | 0.825 | 33.8 | 0.963 | > 10 | 0.84 | 5 |
| CAPAN-1 (pancreas, adherent) | 0.98 | > 10.2 | 0.964 | > 10.2 | 0.985 | > 10 | 0.985 | > 20 | 0.876 | > 40 | 0.984 | > 10 | 0.981 | > 5 |
| CCF-STTG1 (glioma, adherent) | 0.333 | 0.219 | 0.87 | 9.62 | 0.987 | > 10 | 0.847 | 14.9 | 0.877 | > 40 | 0.971 | > 10 | 0.859 | 4.21 |
| CCK-81 (large intestine, adherent) | 0.813 | 5.11 | 0.982 | > 10.2 | 0.989 | > 10 | 0.989 | > 20 | 0.818 | 20.9 | 0.984 | > 10 | 0.962 | > 5 |
| CHL-1 (melanoma, adherent) | 0.248 | 0.127 | 0.966 | > 10.2 | 0.931 | > 10 | 0.961 | > 20 | 0.911 | > 40 | 0.826 | 5.58 | 0.778 | 1.91 |
| CHSA0011 (chondrosarcoma, adherent) | 0.781 | 6.14 | 0.953 | > 10.2 | 0.931 | > 10 | 0.799 | 14.5 | 0.83 | > 40 | 0.863 | > 10 | 0.788 | 3.22 |
| CHSA0108 (chondrosarcoma, adherent) | 0.885 | > 10.2 | 0.982 | > 10.2 | 0.965 | > 10 | 0.651 | 3.52 | 0.669 | 8.02 | 0.873 | > 10 | 0.805 | 3.01 |
| CHSA8926 (chondrosarcoma, adherent) | 0.832 | > 10.2 | 0.977 | > 10.2 | 0.977 | > 10 | 0.692 | 5.47 | 0.761 | 20.1 | 0.98 | > 10 | 0.806 | 3.96 |
| COLO-205 (large intestine, suspension) | 0.987 | > 10.2 | 0.974 | > 10.2 | 0.971 | > 10 | 0.835 | 12.9 | 0.733 | 11.4 | 0.985 | > 10 | 0.834 | 3.18 |
| COLO-678 (large intestine, semi-adherent) | 0.958 | > 10.2 | 0.981 | > 10.2 | 0.982 | > 10 | 0.907 | > 20 | 0.784 | 22.4 | 0.985 | > 10 | 0.95 | > 5 |
| COLO-679 (melanoma, adherent) | 0.67 | 2.03 | 0.983 | > 10.2 | 0.942 | > 10 | 0.81 | 12.1 | 0.88 | > 40 | 0.982 | > 10 | 0.928 | > 5 |
| COLO-680N (oesophagus, adherent) | 0.756 | 4.09 | 0.907 | > 10.2 | 0.983 | > 10 | 0.886 | > 20 | 0.986 | > 40 | 0.972 | > 10 | 0.953 | > 5 |
| COLO-783 (melanoma, adherent) | 0.929 | > 10.2 | 0.99 | > 10.2 | 0.976 | > 10 | 0.753 | 6.43 | 0.868 | 34.2 | 0.991 | > 10 | 0.982 | > 5 |
| COR-L23 (large cell lung carcinoma, adherent) | 0.405 | 0.353 | 0.955 | > 10.2 | 0.969 | > 10 | 0.825 | 11.6 | 0.724 | 10.6 | 0.977 | > 10 | 0.872 | 4.55 |
| COR-L321 (lung, suspension) | 0.571 | 1 | 0.956 | > 10.2 | 0.985 | > 10 | 0.808 | 10.3 | 0.663 | 7.08 | 0.955 | > 10 | 0.865 | 4.39 |
